In PubChem BioAssay AID2100 (National Center for Advancing Translational Sciences (NCATS), 2009):
The whole screen tested about 300,000 compounds, of which about 1,200 (0.4%) were called active. Inconclusive means that the source gave no clear call. Such entries were picked first, then a sample of the others. Calls follow the shape of the dose curve; as a rule, active = well fitted inhibition curve with a large enough effect; inconclusive = small, poorly fitted or top-dose-only effect, or another doubt; inactive = no such curve, though single readings can be large or run the other way. Potencies of inconclusive entries are doubtful fits and often do not repeat.

molecular target: Lysosomal alpha-glucosidase (Homo sapiens) (UniProt P10253); assay: qHTS Assay for Inhibitors and Activators of Human alpha-Glucosidase Cleavage of Glycogen; conditions: recombinant GAA, glycogen substrate, Amplex Red glucose oxidase fluorescence; series mostly up to 76.4 µM
Method in brief: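 Natural-substrate format: glycogen cleavage by 4 nM human enzyme, glucose read by Amplex Red coupling (Ex 573, Em 610 nm). Normalized to enzyme and no-enzyme controls.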
Potency is read from the fitted curve at half-maximal effect.

| Compound | Potency |
| --- | --- |
| Cc1cc(C)cc(-n2c(SCC(=O)Nc3ccccc3F)nc3c(oc4ccccc43)c2=O)c1 | inactive |
| COc1ccc(CNC(=O)CN2CCN(c3ccccc3O)CC2)cc1OC | inconclusive: 8.91 µM [inhibitor, full curve] |
| O=C(CNCC1CCCO1)Nc1ccc(N2CCCCCC2)cc1 (stereo not drawn) | inconclusive: 15.7 µM [inhibitor, partial curve] |
| O=C1CCC(=O)N(O)CCCCCNC(=O)CCC(=O)N(O)CCCCNC(=O)CCC(=O)N(O)CCCCCN1 | inconclusive: 50.1 µM [inhibitor, single point] |
| CC(C)(C)c1ccc(/C=N/Nc2ccc(C(=O)O)cc2)cc1 | inconclusive: 35.5 µM [inhibitor, partial curve] |
| CCS(=O)(=O)c1c(S(=O)(=O)CC)c2cc(C(C)(C)C)ccn2c1C(=O)c1ccc(F)cc1 | inconclusive: 12.6 µM [inhibitor, partial curve] |
| CCN(CC)c1ccc(NC(=S)Nc2ccc(F)cc2)cc1 | inconclusive: 22.4 µM [inhibitor, partial curve] |
| COc1ccc(-c2cnnc(N/N=C/c3ccc(O)c(OC)c3)n2)cc1 | inconclusive: 10 µM [inhibitor, full curve, poor fit] |
| CN1c2cccc3cccc(c23)N(C)C1c1cccs1 | inconclusive: 22.2 µM [inhibitor, partial curve] |
| O=C(CN1CCN(c2ccc(O)cc2)CC1)Nc1ccc(-c2ccccc2)cc1 | active: 10 µM |
| Cc1ccc(S(=O)(=O)Nc2nc(C)c(C(=O)NN)s2)cc1 | active: 31.6 µM |
| Cc1ccc2c(c1)CC1(CN2C)C(=O)OC2(CCCCC2)OC1=O | inconclusive: 28.2 µM [inhibitor, partial curve] |
| O=C(Cc1cccs1)NNC(=S)NC(=O)c1ccco1 | inconclusive: 39.5 µM [inhibitor, single point] |
| COc1cccc(NC(=O)COC(=O)c2c(F)cccc2Cl)c1 | inconclusive: 6.31 µM [inhibitor, single point] |
| O=C1CC(c2ccccc2)=NN1c1ccc([N+](=O)[O-])cc1 | inconclusive: 28 µM [inhibitor, partial curve] |
| CC(C)(C)NC(=O)CN(Cc1cccs1)C(=O)CCN1CCc2ccccc21 | inconclusive: 22.4 µM [inhibitor, single point] |
| COc1ccc(CNC(=S)N/N=C/c2ccc(O)c(OC)c2)cc1 | inconclusive: 50.1 µM [inhibitor, single point] |
| Cc1cc(C)nc(N/N=C/C2=C(N3CCOCC3)C(=C\c3ccc(Cl)cc3)/CC2)n1 | inconclusive: 8.84 µM [inhibitor, full curve] |
| Cc1cc(C)nc(NNC2=CC(=[N+]3CCCCC3)CC(C)(C)C2)n1 | inconclusive: 35.5 µM [inhibitor, partial curve] |
| CC(C)c1ccc(NC(=S)NNC(=O)c2cccs2)cc1 | inconclusive: 39.8 µM [inhibitor, single point] |
| COC(=O)c1c(N)sc2c1CC(C)(C)OC2 | inconclusive: 31.6 µM [inhibitor, partial curve] |
| Brc1ccc(C2Nc3cccc4cccc(c34)N2)s1 | inconclusive: 39.8 µM [activator, single point] |

| Compound | Potency |
| --- | --- |
| CCc1ccc2[nH]c(=O)c(C3C(C#N)=C(N)Oc4c3ccc3cccnc43)cc2c1 (stereo not drawn) | inconclusive: 39.5 µM [activator, single point] |
| CCN(C(=O)CSc1nnc(C)n2c1cc1occc12)c1ccccc1 | inactive |
| Cc1ccc(O)c(Sc2cc(C)ccc2O)c1 | active: 28.2 µM |
| COc1ccc(C2NC3=C(CCC3)C3(C#N)C4(N=C(N)C23C#N)OCCO4)cc1 (stereo not drawn) | active: 22.2 µM |
| COc1cccc(CNC(=O)Nc2cccs2)c1 | inconclusive: 50.1 µM [inhibitor, single point] |
| CC1=NNC(=O)C1CCC(=O)N/N=C(\C)c1ccc(Cl)cc1 (stereo not drawn) | inconclusive: 10 µM [inhibitor, partial curve] |
| COC(=O)c1c(NC(=S)Nc2cc(OC)c(Cl)cc2OC)sc2c1CCCCC2 | inconclusive: 22.2 µM [inhibitor, single point] |
| Cc1ccc(N2C(=O)CSC2=S)cc1C | inconclusive: 22.4 µM [inhibitor, single point] |
| C(=N\c1c(-c2ccccc2)nc2n1CCS2)/c1ccccc1 | inconclusive: 22.2 µM [inhibitor, single point] |
| NN(Cc1ccccc1)C(=S)Nc1ccc(Cl)c(Cl)c1 | inconclusive: 50.1 µM [inhibitor, single point] |
| CC(C)CNC(=S)NNC(=O)c1csc2c1CCCC2 | inconclusive: 15.7 µM [inhibitor, partial curve] |
| N#C/C(=C\c1cc(Cl)c(OCc2ccc(Cl)cc2)c(Cl)c1)C(N)=O | inactive |
| Cc1sc(N/N=C/c2ccco2)nc1-c1ccccc1 | inconclusive: 14.1 µM [inhibitor, partial curve] |
| Oc1ccccc1/C=N/Nc1ccccc1 | inconclusive: 14.1 µM [inhibitor, partial curve] |
| CC(=O)c1ccc(NC(=O)Nc2sc(NS(=O)(=O)c3ccccc3)nc2C)cc1 | inconclusive: 10 µM [inhibitor, full curve] |
| CCCC(=O)Nc1cc(Cl)ccc1C | inconclusive: 39.8 µM [activator, partial curve, poor fit] |
| COc1cc(CNc2ccc3[nH]c(=O)[nH]c3c2)ccc1OCC(=O)NC(C)(C)C | inconclusive: 28 µM [inhibitor, partial curve] |
| Cc1cc(O)ccc1Nc1nc2ccccc2nc1Nc1ccc(O)cc1C | inconclusive: 39.8 µM [inhibitor, partial curve] |
| Nc1cccc(C2=Nc3cccc4cccc(c34)N2)c1 | inconclusive: 35.5 µM [activator, partial curve] |
| O=C(COc1c(Cl)cccc1Cl)NN1C(=O)CSC1=S | inconclusive: 35.5 µM [inhibitor, single point] |
| Cc1cc(C)nc(SCC(=O)Nc2cc(C)on2)n1 | inconclusive: 126 µM [activator, partial curve, poor fit] |
